Biological target: T1, Mint1, amino acids 447-758, fused to the Gal4 DNA binding domain (bait) (yeast, UniProt P04386 1-147; Q02410 447-758)
T1 construct: Yeast two-hybrid bait in pGBTQ; also called X11 alpha
Test: yeast two-hybrid, Example 8: bait Mint1 aa 447-758, prey aa 364-589

B1: KIAA0427, amino acids 364-589, fused to the Gal4 activation domain (prey) (other, yeast;human, UniProt P04386 768-881, looked up, not shown: small tags and cut ends)
chain: ANFNQSGNIADSSLSFTFTNSSNGPNLITTQTNSQALSQPIASSNVHDNFMNNEITASKIDDGNNSKPLSPGWTDQTAYNAFGITTGMFNTTTMDDVYNYLFDDEDTPPNPKKETTTPQQNKMDKLIEILNSMRNNSSDVDTKLTTFMEEAQNSTNSEEMLGEIVRTIYQKAVSDRSFAFTAAKLCDKMALFMVEGTKFRSLLLNMLQKDFTVREELQQQDVERWLGFITFLCEVFGTMRSSTGEPFRVLVCPIYTCLRELLQSQDVKEDAVLCCSMELQSTGRLLEEQLPEMMTELLASARDKMLCPSESMLTRSLLLEVIELHANSWNPLTPPITQYY
notes: Yeast two-hybrid prey from the human brain cDNA library in pACT2
Does B1 bind?
Result: binds

Reference: patent US20020106773A1 (MYRIAD GENETICS, published 2002)
